Test results as given in PubChem BioAssay (Tox21).
“And” between values parts separate entries of the source, which are not always exact repeats. Equal values may be shown once. The shares of active, inactive and inconclusive entries below differ from those in the screen. A potency beside an inconclusive call is a rough fit, not a confirmed value. A structure can be active in one record and inactive in another. The source made the active and inactive calls. Calls come from the whole dose curve; as a rule, active = well fitted inhibition curve with a large enough effect in the repeat runs; inconclusive = weak or mixed curves; inactive = no such curve, though single readings can be large or run the other way.

Target: Cytochrome P450 1A2 (Homo sapiens) (UniProt P05177)
UniProt P05177, sequence (P05177 whole entry, looked up): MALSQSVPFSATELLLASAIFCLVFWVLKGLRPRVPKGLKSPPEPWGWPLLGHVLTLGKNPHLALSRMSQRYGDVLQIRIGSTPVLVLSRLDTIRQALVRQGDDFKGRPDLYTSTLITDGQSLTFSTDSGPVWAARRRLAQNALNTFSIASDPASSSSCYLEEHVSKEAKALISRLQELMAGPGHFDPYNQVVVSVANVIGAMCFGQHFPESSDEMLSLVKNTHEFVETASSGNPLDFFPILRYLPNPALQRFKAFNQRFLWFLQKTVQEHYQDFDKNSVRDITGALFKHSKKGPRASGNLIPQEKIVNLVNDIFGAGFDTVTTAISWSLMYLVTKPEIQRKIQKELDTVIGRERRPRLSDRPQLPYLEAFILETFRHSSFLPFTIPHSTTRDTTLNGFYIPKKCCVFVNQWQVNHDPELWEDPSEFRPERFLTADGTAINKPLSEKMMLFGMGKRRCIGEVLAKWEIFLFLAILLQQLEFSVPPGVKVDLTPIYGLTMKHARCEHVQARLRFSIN
Assay: Cytochrome P450 Family 1 Subfamily A Member 2 (CYP1A2) small molecule antagonists: luciferase reporter qHTS assay (AID 1671199); note: nearly all actives have a fitted effect of over 50% in size
Conditions: P450-Glo CYP1A2 enzyme, luciferin luminescence, 1 h; series mostly up to 115 µM
Outline: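 Room-temperature CYP1A2 reaction with proluciferin substrate: compounds added from DMSO, 10 min preincubation, NADPH regeneration for 1 h. Luciferin detection reagent then added; luminescence recorded as RLU.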
Potency is the fitted concentration of half-maximal effect; tags give direction and shape of the fitted curve.

| SMILES | Potency |
| --- | --- |
| CCCCCCCC/C=C/C(=O)O | inconclusive: 24.5 µM [inhibitor, partial curve] |
| CCNCCO | inactive |
| O=C(O)CCS | inactive |
| CCCCCC[C@@H](O)C/C=C\CCCCCCCC(=O)O | inactive |
| COC(C)(C)OC | inconclusive: 38.8 µM [inhibitor, partial curve] |
| COc1ccc(C)cc1 | inconclusive: 71 µM [inhibitor, partial curve, poor fit] |
| CC(C)C(=O)c1ccccc1 | inconclusive: 44.8 µM [inhibitor, partial curve] |
| C[C@@H](O)[C@H]1C(=O)N2C(C(=O)O)=C(S[C@@H]3CN[C@H](C(=O)N(C)C)C3)[C@H](C)[C@H]12 | active: 15.5 µM and inactive |
| BrCCOc1ccccc1 | inconclusive: 63.5 µM [inhibitor, partial curve] |
| C=CC(=O)NC(C)C | inconclusive: 68.9 µM [inhibitor, partial curve, poor fit] |
| O=C(O)c1cccc(C(F)(F)F)c1 | inactive |
| CCO[Si](OCC)(OCC)OCC | inconclusive: 64.4 µM [inhibitor, partial curve, poor fit] |
| CN(C)c1ccc(O)c2c1C[C@H]1C[C@H]3[C@H](N(C)C)C(=O)C(C(N)=O)=C(O)[C@@]3(O)C(=O)C1=C2O | inactive |
| CCCC(=O)OCCc1ccccc1 | inactive |
| Nc1c(Cl)cc(Cl)cc1[N+](=O)[O-] | active: 5.64 µM |
| O=C(O)c1c(Cl)cccc1Cl | inconclusive: 62.1 µM [inhibitor, partial curve] |
| COCC(=O)O | inconclusive: 73 µM [inhibitor, partial curve] |
| N=C(N)c1ccc(OCCCCCOc2ccc(C(=N)N)cc2)cc1 | inactive and inconclusive: 30.3 µM [inhibitor, partial curve] |
| C=CCCCCCCCCCCCC | inactive |

| SMILES | Potency |
| --- | --- |
| Cc1cscn1 | inconclusive: 61 µM [inhibitor, partial curve] |
| CC(C)CC(O)CC(C)C | inactive |
| CNC1CCCN(c2c(F)cc3c(=O)c(C(=O)O)cn(C4CC4)c3c2OC)C1 (stereo not drawn) | inactive |
| Cc1ccc(C(=O)Oc2ccc(C(O)CNC(C)(C)C)cc2OC(=O)c2ccc(C)cc2)cc1 (stereo not drawn) | inactive |
| COc1ccc(O)cc1 | inconclusive: 38.5 µM [inhibitor, partial curve] and inconclusive: 50.2 µM [inhibitor, partial curve, poor fit] |
| CC1(C)O[C@@H]2C[C@H]3[C@@H]4C[C@H](F)C5=CC(=O)CC[C@]5(C)[C@H]4[C@@H](O)C[C@]3(C)[C@]2(C(=O)CO)O1 | inactive |
| CCCCc1ccc2cccc(S(=O)(=O)O)c2c1 | inconclusive: 37.3 µM [inhibitor, partial curve, poor fit] |
| O=[N+]([O-])C(CO)(CO)CO | inconclusive: 69.9 µM [inhibitor, partial curve, poor fit] |
| Cc1ncc(CSSCc2cnc(C)c(O)c2CO)c(CO)c1O | inconclusive: 24.5 µM [inhibitor, partial curve] |
| O=C(OCC(O)CO)c1ccccc1Nc1ccnc2cc(Cl)ccc12 (stereo not drawn) | inconclusive: 14.4 µM [inhibitor, partial curve] |
| CCCc1ccccc1O | inconclusive: 39.9 µM [inhibitor, partial curve] |
| CC(C)(C)C(=O)O | inconclusive: 35.7 µM [inhibitor, partial curve] |
| CCCCCCCCC1CO1 (stereo not drawn) | inactive |
| CC(C)(C)c1cccc(O)c1 | inconclusive: 39.9 µM [inhibitor, partial curve] |
| O=C1NC(=O)[C@@]2(CCOc3ccc(F)cc32)N1 | inactive |
| CC(C)(N=C=O)c1cccc(C(C)(C)N=C=O)c1 | inactive |
| CCC1CCC(CCC(=O)O)C1 (stereo not drawn) | inconclusive: 64.7 µM [inhibitor, partial curve] |
| OC1CCCc2ccccc21 (stereo not drawn) | inconclusive: 71.8 µM [inhibitor, partial curve, poor fit] |
| C=CCn1c(=O)n(CC=C)c(=O)n(CC=C)c1=O | active: 31.6 µM |
